The other results are listed elsewhere or left out. The list includes weakly bound sequences.

In the assay the target is T1, MBP-FoxP3dN (UniProt Q99JB6).
T1 sequence: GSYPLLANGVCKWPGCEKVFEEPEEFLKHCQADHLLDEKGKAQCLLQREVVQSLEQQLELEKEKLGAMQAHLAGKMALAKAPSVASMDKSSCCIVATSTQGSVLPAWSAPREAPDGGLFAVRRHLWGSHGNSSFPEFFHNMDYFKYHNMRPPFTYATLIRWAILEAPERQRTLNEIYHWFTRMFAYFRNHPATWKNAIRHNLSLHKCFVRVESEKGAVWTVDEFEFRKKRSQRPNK
The assay is described as follows: PD-seq (MBP pull-down with sequencing). The conditions noted are these: 20 mM Tris-HCl pH 7.5, 100 mM NaCl, 1.5 mM MgCl2, 0.4 uM protein, 0.1 uM dsDNA library, 30 min, room temperature, amylose pull-down; high values mean tight binding; double strand, one strand shown.
“GATGATTGTTCTCCCAGCTGATGAATTAGGTGACTCGAGTAAACAAATTTTCCTAATCTTTCTGTTCAAGCGCCATCTAC”: the binding signal (RPM ratio (pull-down/input)) was 0.899.
Under “GATGATTGTTCTCCCAGCTGATGAATTGTGTAACTCGAGTAAACAAATTTTCCTAATCTTTCTGTTCAAGCGCCATCTAC” stands 3.78; under “GATGATTGTTCTCCCAGCTGATGAATTACACATTTCGAGTAAACAAATTTTCCTAATCTTTCTGTTCAAGCGCCATCTAC”, 0.832.
The value for “GATGATTGTTCTCCCAGCTGATGAATTTACTAGTTCGAGTAAACAAATTTTCCTAATCTTTCTGTTCAAGCGCCATCTAC” was 1.09; that for “GATGATTGTTCTCCCAGCTGATGAATTAGCTTCGTCGAGTAAACAAATTTTCCTAATCTTTCTGTTCAAGCGCCATCTAC” was 0.56; that for “GATGATTGTTCTCCCAGCTGATGAATTAAACCCTTCGAGTAAACAAATTTTCCTAATCTTTCTGTTCAAGCGCCATCTAC” was 0.267.
The value for “GATGATTGTTCTCCCAGCTGATGAATTTCGAACGTCGAGTAAACAAATTTTCCTAATCTTTCTGTTCAAGCGCCATCTAC” was 0.337.
For “GATGATTGTTCTCCCAGCTGATGAATTACGTGGCTCGAGTAAACAAATTTTCCTAATCTTTCTGTTCAAGCGCCATCTAC”, the binding signal (RPM ratio (pull-down/input)) came out at 0.68.
For “GATGATTGTTCTCCCAGCTGATGAATTCAGTGCGTCGAGTAAACAAATTTTCCTAATCTTTCTGTTCAAGCGCCATCTAC”, the binding signal (RPM ratio (pull-down/input)) turned out to be 0.868.
For the sequence “GATGATTGTTCTCCCAGCTGATGAATTTACGAAATCGAGTAAACAAATTTTCCTAATCTTTCTGTTCAAGCGCCATCTAC”, the binding signal (RPM ratio (pull-down/input)) came to 0.491.
In the case of “GATGATTGTTCTCCCAGCTGATGAATTCCTGACTTCGAGTAAACAAATTTTCCTAATCTTTCTGTTCAAGCGCCATCTAC”, the binding signal (RPM ratio (pull-down/input)) amounted to 0.34.
The value for “GATGATTGTTCTCCCAGCTGATGAATTTACCTGCTCGAGTAAACAAATTTTCCTAATCTTTCTGTTCAAGCGCCATCTAC” was 0.4; that for “GATGATTGTTCTCCCAGCTGATGAATTGCTGTTATCGAGTAAACAAATTTTCCTAATCTTTCTGTTCAAGCGCCATCTAC” was 2.06.
Under “GATGATTGTTCTCCCAGCTGATGAATTGGTGAAATCGAGTAAACAAATTTTCCTAATCTTTCTGTTCAAGCGCCATCTAC” stands 0.383.
The value for “GATGATTGTTCTCCCAGCTGATGAATTCATTCCTTCGAGTAAACAAATTTTCCTAATCTTTCTGTTCAAGCGCCATCTAC” was 0.287; that for “GATGATTGTTCTCCCAGCTGATGAATTGCCAAACTCGAGTAAACAAATTTTCCTAATCTTTCTGTTCAAGCGCCATCTAC” was 0.549.
For the sequence “GATGATTGTTCTCCCAGCTGATGAATTATGCGACTCGAGTAAACAAATTTTCCTAATCTTTCTGTTCAAGCGCCATCTAC”, the binding signal (RPM ratio (pull-down/input)) turned out to be 3.1.
Under “GATGATTGTTCTCCCAGCTGATGAATTAATTCGGTCGAGTAAACAAATTTTCCTAATCTTTCTGTTCAAGCGCCATCTAC” stands 0.288.
The value for “GATGATTGTTCTCCCAGCTGATGAATTCTTCAACTCGAGTAAACAAATTTTCCTAATCTTTCTGTTCAAGCGCCATCTAC” was 0.219; that for “GATGATTGTTCTCCCAGCTGATGAATTTGTTGCGTCGAGTAAACAAATTTTCCTAATCTTTCTGTTCAAGCGCCATCTAC” was 6.75.
Take “GATGATTGTTCTCCCAGCTGATGAATTATAACAATCGAGTAAACAAATTTTCCTAATCTTTCTGTTCAAGCGCCATCTAC”: the binding signal (RPM ratio (pull-down/input)) is 0.946.
The value for “GATGATTGTTCTCCCAGCTGATGAATTAGGGCTGTCGAGTAAACAAATTTTCCTAATCTTTCTGTTCAAGCGCCATCTAC” was 0.403; that for “GATGATTGTTCTCCCAGCTGATGAATTGTTTCGCTCGAGTAAACAAATTTTCCTAATCTTTCTGTTCAAGCGCCATCTAC” was 0.868; that for “GATGATTGTTCTCCCAGCTGATGAATTGGGTGAGTCGAGTAAACAAATTTTCCTAATCTTTCTGTTCAAGCGCCATCTAC” was 0.443.
The value for “GATGATTGTTCTCCCAGCTGATGAATTAACGATTTCGAGTAAACAAATTTTCCTAATCTTTCTGTTCAAGCGCCATCTAC” was 0.369; that for “GATGATTGTTCTCCCAGCTGATGAATTGCTCAGCTCGAGTAAACAAATTTTCCTAATCTTTCTGTTCAAGCGCCATCTAC” was 0.355; that for “GATGATTGTTCTCCCAGCTGATGAATTAGGTTGATCGAGTAAACAAATTTTCCTAATCTTTCTGTTCAAGCGCCATCTAC” was 1.42.
The value for “GATGATTGTTCTCCCAGCTGATGAATTTTAATAATCGAGTAAACAAATTTTCCTAATCTTTCTGTTCAAGCGCCATCTAC” was 0.415; that for “GATGATTGTTCTCCCAGCTGATGAATTTCTTACTTCGAGTAAACAAATTTTCCTAATCTTTCTGTTCAAGCGCCATCTAC” was 0.283; that for “GATGATTGTTCTCCCAGCTGATGAATTCTAGGGGTCGAGTAAACAAATTTTCCTAATCTTTCTGTTCAAGCGCCATCTAC” was 0.306.
For “GATGATTGTTCTCCCAGCTGATGAATTTCCTAACTCGAGTAAACAAATTTTCCTAATCTTTCTGTTCAAGCGCCATCTAC”, the binding signal (RPM ratio (pull-down/input)) was found to be 0.254.
The value for “GATGATTGTTCTCCCAGCTGATGAATTTGACCATTCGAGTAAACAAATTTTCCTAATCTTTCTGTTCAAGCGCCATCTAC” was 0.421; that for “GATGATTGTTCTCCCAGCTGATGAATTCTCGCTTTCGAGTAAACAAATTTTCCTAATCTTTCTGTTCAAGCGCCATCTAC” was 0.821; that for “GATGATTGTTCTCCCAGCTGATGAATTATGGGACTCGAGTAAACAAATTTTCCTAATCTTTCTGTTCAAGCGCCATCTAC” was 0.434.
Under “GATGATTGTTCTCCCAGCTGATGAATTCACGTCTTCGAGTAAACAAATTTTCCTAATCTTTCTGTTCAAGCGCCATCTAC” stands 0.44; under “GATGATTGTTCTCCCAGCTGATGAATTCATCGACTCGAGTAAACAAATTTTCCTAATCTTTCTGTTCAAGCGCCATCTAC”, 0.344.
Consider “GATGATTGTTCTCCCAGCTGATGAATTTTTTCTTTCGAGTAAACAAATTTTCCTAATCTTTCTGTTCAAGCGCCATCTAC”, for which the binding signal (RPM ratio (pull-down/input)) was 0.184.
The value for “GATGATTGTTCTCCCAGCTGATGAATTTGCTCCGTCGAGTAAACAAATTTTCCTAATCTTTCTGTTCAAGCGCCATCTAC” was 0.386.
Under “GATGATTGTTCTCCCAGCTGATGAATTGTTAAGGTCGAGTAAACAAATTTTCCTAATCTTTCTGTTCAAGCGCCATCTAC” stands 0.393.
Under “GATGATTGTTCTCCCAGCTGATGAATTGAATACCTCGAGTAAACAAATTTTCCTAATCTTTCTGTTCAAGCGCCATCTAC” stands 0.446; under “GATGATTGTTCTCCCAGCTGATGAATTGTTAAGTTCGAGTAAACAAATTTTCCTAATCTTTCTGTTCAAGCGCCATCTAC”, 0.441.
With “GATGATTGTTCTCCCAGCTGATGAATTCGGCAGATCGAGTAAACAAATTTTCCTAATCTTTCTGTTCAAGCGCCATCTAC”, the binding signal (RPM ratio (pull-down/input)) worked out at 0.307.
Under “GATGATTGTTCTCCCAGCTGATGAATTATTCCCGTCGAGTAAACAAATTTTCCTAATCTTTCTGTTCAAGCGCCATCTAC” stands 0.253; under “GATGATTGTTCTCCCAGCTGATGAATTCACACGGTCGAGTAAACAAATTTTCCTAATCTTTCTGTTCAAGCGCCATCTAC”, 0.272; under “GATGATTGTTCTCCCAGCTGATGAATTTTGTGTCTCGAGTAAACAAATTTTCCTAATCTTTCTGTTCAAGCGCCATCTAC”, 4.27.
Regarding “GATGATTGTTCTCCCAGCTGATGAATTCACAACTTCGAGTAAACAAATTTTCCTAATCTTTCTGTTCAAGCGCCATCTAC”, the binding signal (RPM ratio (pull-down/input)) is 0.55.
The value for “GATGATTGTTCTCCCAGCTGATGAATTGTTACATTCGAGTAAACAAATTTTCCTAATCTTTCTGTTCAAGCGCCATCTAC” was 1.25; that for “GATGATTGTTCTCCCAGCTGATGAATTTCTTTGGTCGAGTAAACAAATTTTCCTAATCTTTCTGTTCAAGCGCCATCTAC” was 1.03.
Take “GATGATTGTTCTCCCAGCTGATGAATTAGTAACGTCGAGTAAACAAATTTTCCTAATCTTTCTGTTCAAGCGCCATCTAC”: the binding signal (RPM ratio (pull-down/input)) stood at 0.582.
Consider “GATGATTGTTCTCCCAGCTGATGAATTTTCTTGTTCGAGTAAACAAATTTTCCTAATCTTTCTGTTCAAGCGCCATCTAC”, for which the binding signal (RPM ratio (pull-down/input)) amounted to 0.568.
Under “GATGATTGTTCTCCCAGCTGATGAATTCGACAGCTCGAGTAAACAAATTTTCCTAATCTTTCTGTTCAAGCGCCATCTAC” stands 0.304; under “GATGATTGTTCTCCCAGCTGATGAATTCGAGTCTTCGAGTAAACAAATTTTCCTAATCTTTCTGTTCAAGCGCCATCTAC”, 0.542.
As for “GATGATTGTTCTCCCAGCTGATGAATTTGGTTCCTCGAGTAAACAAATTTTCCTAATCTTTCTGTTCAAGCGCCATCTAC”, the binding signal (RPM ratio (pull-down/input)) came to 1.55.
The value for “GATGATTGTTCTCCCAGCTGATGAATTGGCCATATCGAGTAAACAAATTTTCCTAATCTTTCTGTTCAAGCGCCATCTAC” was 0.558.
Under “GATGATTGTTCTCCCAGCTGATGAATTGACTTTTTCGAGTAAACAAATTTTCCTAATCTTTCTGTTCAAGCGCCATCTAC” stands 0.406; under “GATGATTGTTCTCCCAGCTGATGAATTCCGTCTATCGAGTAAACAAATTTTCCTAATCTTTCTGTTCAAGCGCCATCTAC”, 0.882; under “GATGATTGTTCTCCCAGCTGATGAATTATGACCTTCGAGTAAACAAATTTTCCTAATCTTTCTGTTCAAGCGCCATCTAC”, 0.451.
Under “GATGATTGTTCTCCCAGCTGATGAATTCACGTTCTCGAGTAAACAAATTTTCCTAATCTTTCTGTTCAAGCGCCATCTAC” stands 0.522; under “GATGATTGTTCTCCCAGCTGATGAATTTTTGTCATCGAGTAAACAAATTTTCCTAATCTTTCTGTTCAAGCGCCATCTAC”, 0.666.
As for “GATGATTGTTCTCCCAGCTGATGAATTAGACGGTTCGAGTAAACAAATTTTCCTAATCTTTCTGTTCAAGCGCCATCTAC”, the binding signal (RPM ratio (pull-down/input)) came to 0.354.
The value for “GATGATTGTTCTCCCAGCTGATGAATTTCCTGGATCGAGTAAACAAATTTTCCTAATCTTTCTGTTCAAGCGCCATCTAC” was 0.15; that for “GATGATTGTTCTCCCAGCTGATGAATTAACTATATCGAGTAAACAAATTTTCCTAATCTTTCTGTTCAAGCGCCATCTAC” was 0.384.
Under “GATGATTGTTCTCCCAGCTGATGAATTCATGAACTCGAGTAAACAAATTTTCCTAATCTTTCTGTTCAAGCGCCATCTAC” stands 0.336.

The values above are taken from PMC12820563.
